Assay results as given in PubChem BioAssay AID1508624 (National Center for Advancing Translational Sciences (NCATS), 2021).
The whole screen tested about 48,000 compounds, of which about 120 (0.25%) were called active. About 4% were inconclusive and are not listed. Calls follow the shape of the dose curve; as a rule, active = well fitted activation curve with a large enough effect; inconclusive = small, poorly fitted or top-dose-only effect, or another doubt; inactive = no such curve, though single readings can be large or run the other way. The entries are a selection whose mix differs from that of the whole data set. Entries without a call were filed so in the source.

Assay: Primary qHTS for Identification of Small Molecule Activators of Huntingtin-Antisense Promoter Activity; also: nearly all actives have a fitted effect of over 55% in size
Conditions: HEK293 HTT-AS promoter firefly luciferase reporter, 24 h; activity change, positive = activation: at 57.5 µM (top of the series), percent change from vehicle, -100% = no light
In short: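 HEK293 cells carrying firefly luciferase reporters were seeded at 2,500 per well in Opti-MEM and cultured for 24 h. They were then treated with compounds at up to 57.5 uM final for 24 h at 37 degrees C before Dual-Glo luminescence readout.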
Potency is read from the fitted curve at half-maximal effect.

| SMILES | activity change, positive = activation | Potency |
| --- | --- | --- |
| CCOC(=O)c1cc(C)n(CC2CCC(C(=O)Nc3cccc(C(C)=O)c3)CC2)c1C (stereo not given) | -0.893% | – |
| Cc1ccc(S(=O)(=O)Nc2ccc(-c3ccc(N4CCCCCC4)nn3)cc2)c(C)c1 | 0.12% | – |
| CCCCn1c(SCC(=O)c2ccccc2)nc2sc3c(c2c1=O)CCCC3 | 5.27% | – |
| COc1ccc(N(CC(=O)N2CCCCC2)S(=O)(=O)c2ccc(OC)c(OC)c2)cc1 | -2.74% | – |
| CCCCN(CC)C(=O)c1ccc2c(c1)NC(=O)c1ccccc1S2 | -23.4% | – |
| CC1Cc2cc(S(=O)(=O)CCC(=O)Nc3ccccc3F)ccc2N1C(=O)C1CC1 (stereo not given) | -29.2% | – |
| O=C(Nc1cccc(Br)c1)N1CCN2CCCCC2C1 (stereo not given) | 7.64% | – |
| Cc1c(NC(=O)Nc2ccc(Cl)c(Cl)c2)sc2nc3n(c(=O)c12)CCC(C)CC3 (stereo not given) | 0.177% | – |
| COc1ccc(C(CC(=O)Nc2cc(Cl)c(OC)cc2OC)N2Cc3ccccc3C2=O)cc1 (stereo not given) | -26.4% | – |
| CCCOc1ccc(Oc2nc(NC)nc(N3CCOCC3)n2)nn1 | inactive: -14.5% | – |
| COc1ccc(-c2nc(SCC(=O)NC(C)CCc3ccccc3)n[nH]2)cc1 (stereo not given) | inactive: -52.9% | – |
| CCN(c1ccccc1)S(=O)(=O)c1c(C)nc2scc(C)n2c1=O | -17.1% | – |
| COc1cc(C2C(=O)N(C3CCCCC3)CC(=O)N2CCc2ccccc2)ccc1OC(C)C (stereo not given) | -8.86% | – |
| COc1ccccc1CNc1nc2ccc(C)cc2n2nnnc12 | -12.6% | – |
| COc1cccc(NC(=O)CSc2nnc(-c3cccc(OC)c3)o2)c1 | – | active: 14.1 µM |
| Cc1ccc(NC(=O)CSc2ncc(-c3ccccc3)[nH]2)cc1 | inactive: -0.974% | – |
| CCN1CCN(c2cc(C)c3cc(NC(=O)/C=C/c4cccc(OC)c4OC)ccc3n2)CC1 | inactive: -9.92% | – |
| CCOC(=O)C1CCN(C(=O)c2ccc3c(c2)sc2nc(-c4ccc(OC)cc4)cn23)CC1 | inactive: -11.3% | – |
| CCOc1ccccc1CNC(=O)c1cc2c(=O)n(Cc3ccco3)ccc2nc1C | -16.1% | – |
| CCCc1cc(=O)oc2c(C)c3c(cc12)CN(CCc1ccc(Cl)cc1)CO3 | -9.74% | – |

| SMILES | activity change, positive = activation | Potency |
| --- | --- | --- |
| Cc1ccc2oc(-c3cc(NC(=O)CC(C)C)ccc3Cl)nc2c1 | -26.3% | – |
| Cc1ccc(NC(=O)CSc2nc3c(sc4ccccc43)c(=O)n2CCCC(=O)NC2CCCC2)cc1C | inactive: -2.3% | – |
| CCOc1cc(CNC(=O)Cn2ncn3c(cc4cc(F)ccc43)c2=O)cc(OCC)c1OCC | 2.33% | – |
| CCOc1ccc(CCNC(=O)c2cnc3sc(N4CCCCC4)nn3c2=O)cc1 | 3.9% | – |
| O=C(Nc1cc(C(F)(F)F)ccc1Cl)c1cnn(-c2ccccc2)c1-n1cccc1 | -43.8% | – |
| Cc1ccc(C)c(NC(=O)CCc2c(C)nn(-c3ccc(N4CCCC4)nn3)c2C)c1 | -11% | – |
| COc1ccc(C2C(=O)N(C3CCCCCC3)CC(=O)N2CCc2ccc(OC)c(OC)c2)cc1 (stereo not given) | -9.28% | – |
| CCCOc1ccc(-c2nc(N3CCC(C)CC3)c3ccccc3n2)cc1 | -7.89% | – |
| CC1=Nc2cc(C(=O)NCCc3ccccc3)ccc2Sc2c(C)ccc(C)c21 | inactive: -39.9% | – |
| COc1ccccc1NC(=O)C1=C(C)Nc2nnnn2C1c1cc(Br)c(O)c(OC)c1 (stereo not given) | -12.4% | – |
| Cc1ccc(NC(=O)Nc2sc3nc4n(c(=O)c3c2C)CCC(C)CC4)c(Cl)c1 (stereo not given) | -2.4% | – |
| CCOc1ccc(Nc2nnc(-n3nc(C)cc3C)c3ccccc23)cc1 | -4.3% | – |
| O=C(Nc1cccc(O)c1)c1noc2c1CCc1ccccc1-2 | 23.4% | – |
| CCOC(=O)CSc1nc2sc3c(c2c(=O)n1-c1ccccc1)CC(C(C)C)OC3 (stereo not given) | -9.48% | – |
| NC(=O)c1ncn([C@@H]2O[C@H](CO)[C@@H](O)[C@@H]2O)c1O | inactive: -33.9% | – |
| O=C(NCCc1ccccc1)c1ccc(CSc2nc3ccncc3n2Cc2ccc(F)cc2)cc1 | inactive: -10.4% | – |
| Cc1ccc(C)c(N2CCN(C3=C(c4ccccc4)C(=O)c4ccccc43)CC2)c1 | 8.33% | – |
| O=S(=O)(Nc1cccc(-c2ccc(N3CCCC3)nn2)c1)c1ccc(F)c(C(F)(F)F)c1 | -9.43% | – |
| CC(=O)c1ccc(NC(=O)CCc2c(C)nn(-c3ccc(N4CCCCC4)nn3)c2C)cc1 | 22.3% | – |
| CCOC(=O)c1c(-c2ccccc2)oc2ccc(N(C(C)=O)S(=O)(=O)c3ccc(C)cc3)cc12 | -16.2% | – |

| SMILES | activity change, positive = activation | Potency |
| --- | --- | --- |
| Cc1nn(-c2ccc(N3CCCCC3)nn2)c(C)c1CCC(=O)NCc1ccc(Cl)cc1 | -42.4% | – |
| CCOC(=O)c1cc(C)n(CC2CCC(C(=O)Nc3ccc(C(=O)OC)cc3)CC2)c1C (stereo not given) | -26.9% | – |
| CCCc1cc(=O)[nH]c(Nc2cc(Cl)ccc2OC)n1 | -20.4% | – |
| Cc1nc2ccn(Cc3ccco3)c(=O)c2cc1C(=O)NCc1ccc(F)cc1 | -17.3% | – |
| Cc1oc2ccc(O)c(CN3CCOCC3)c2c1C(=O)Nc1cccc(Cl)c1C | -5.4% | – |
| Cc1ccc(OCCCSc2nc(-c3ccc(C(C)(C)C)cc3)nc3cc(=O)[nH]n23)cc1C | -9.48% | – |
| Cc1nc2scc(C)n2c(=O)c1S(=O)(=O)Nc1cccc(C(F)(F)F)c1 | -38.7% | – |
| Cc1cc(-c2ccc(S(=O)(=O)Nc3ccc(Cl)cc3C)cc2)on1 | -31.5% | – |
| Cc1ccc(C)c(CNC(=O)c2cc3ccccn3n2)c1 | 11.2% | – |
| CC1Cc2cc(S(=O)(=O)NCc3ccc(N(C)C)cc3)ccc2N1C(=O)C1CCC1 (stereo not given) | -30.5% | – |
| CC(=O)N[C@H]1[C@H]([C@H](O)[C@H](O)CO)OC(C(=O)O)=C[C@@H]1N=C(N)N | inactive: 9.04% | – |
| Cc1ccc(CN2CCN(C3CCN(C(=O)c4ccc(C)cc4)CC3)C(=O)C2=O)cc1 | -8.44% | – |
| CC1CCN(Cc2c(O)ccc3c(=O)c(-c4ccc(Cl)cc4)c(C(F)(F)F)oc23)CC1 | 1.51% | – |
| Cc1ccc(CSc2nc(-c3ccc(C(C)(C)C)cc3)nc3cc(=O)[nH]n23)cc1 | -13.3% | – |
| O=S(=O)(Nc1ccc(-c2ccc(N3CCCC3)nn2)cc1)c1ccc(OC(F)(F)F)cc1 | 0.832% | – |
| Cc1ccc(-c2nnc(Nc3cccc(O)c3)c3ccccc23)cc1S(=O)(=O)N1CCCCC1 | -38.2% | – |
| COC(=O)c1ccc(NC(=O)CC2C(=O)N(c3cccc(OC)c3)C(=O)N2Cc2cccs2)cc1 (stereo not given) | -4.47% | – |
| COc1ccc(S(=O)(=O)Nc2cccc(-c3ccc(N4CCCC4)nn3)c2)c(OC)c1 | 1.24% | – |
| CCc1ccc(S(=O)(=O)Nc2cc3c(C(=O)OCc4ccccc4)c(C)oc3c3ccccc23)cc1 | -4.84% | – |
| COC(=O)CN1C(=O)CSc2ccc(S(=O)(=O)Nc3cc(C)ccc3C)cc21 | -13.7% | – |
